{
  "source": "PubChem BioAssay AID360",
  "about": "(National Center for Advancing Translational Sciences (NCATS), 2006)",
  "note": "In all, about 48,000 compounds went through this assay and about 550 (1.1%) were called active. The inconclusive results got no clear call from the source; some entries with a clear call stand among them for comparison. Cut-off read from the data, not from the text of the source: active = potency below about 15 µM; inconclusive = mostly about 16 µM to 33 µM; inactive = weaker than that. No potency is given beside an inconclusive call; the fits are too rough. Potency is the fitted concentration of half-maximal effect.",
  "data": [
    {"molecular_target": "Lysosomal acid glucosylceramidase (Homo sapiens) (UniProt P04062)", "sequence (P04062 whole entry, looked up)": "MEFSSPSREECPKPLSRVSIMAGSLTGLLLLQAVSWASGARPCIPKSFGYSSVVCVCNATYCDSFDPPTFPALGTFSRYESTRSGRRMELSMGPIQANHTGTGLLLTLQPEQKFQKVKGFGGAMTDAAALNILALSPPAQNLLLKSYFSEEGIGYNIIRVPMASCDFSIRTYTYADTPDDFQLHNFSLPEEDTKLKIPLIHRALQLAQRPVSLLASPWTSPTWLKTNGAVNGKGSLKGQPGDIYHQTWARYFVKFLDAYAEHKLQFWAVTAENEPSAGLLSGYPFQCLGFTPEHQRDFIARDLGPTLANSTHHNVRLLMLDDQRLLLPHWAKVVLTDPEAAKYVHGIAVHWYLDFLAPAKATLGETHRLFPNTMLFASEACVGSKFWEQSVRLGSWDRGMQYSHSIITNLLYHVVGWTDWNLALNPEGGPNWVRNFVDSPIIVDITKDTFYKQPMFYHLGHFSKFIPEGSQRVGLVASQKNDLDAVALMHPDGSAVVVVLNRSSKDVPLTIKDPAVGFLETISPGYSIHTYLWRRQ", "assay": "Glucocerebrosidase;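 note: the screen sought inhibitors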", "settings": "purified enzyme, resorufin glucoside fluorescence (screen aimed at inhibitors), 20 min", "summary_of_the_method": "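Normal human glucocerebrosidase (0.2 nM final) was assayed with resorufin β-D-glucopyranoside (30 uM final) in 50mM citric acid/KH2PO4, 10mM sodium taurocholate, 0.01% tween-20, pH 5.9. Compounds were titrated; fluorescence (Ex 548, Em 600) read after 20 min at RT.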", "values": [
      {"compound": "CCN1C(=O)c2cccc3c(S(=O)(=O)Nc4ncccc4C)ccc1c23", "Potency": "inactive: > 76.9 µM"},
      {"compound": "O=C(CN1C2=NCCCN2c2ccccc21)c1ccc(Br)s1", "Potency": "active: 6.58 µM"},
      {"compound": "Cc1ccccc1N(C(=O)CCC(=O)Nc1ccccn1)C(C(=O)NC(C)C)c1ccc(O)cc1", "note": "(configuration not stated)", "Potency": "inconclusive [decreasing]"},
      {"compound": "O=C(COC(=O)C1CCC1)NCc1ccccc1Cl", "Potency": "inactive: > 76.9 µM"},
      {"compound": "Cc1cccc(/N=C/c2c(O)n(-c3cc(Cl)ccc3N3CCOCC3)c(=O)c3ccccc23)n1", "Potency": "inactive: > 76.9 µM"},
      {"compound": "CCN(CC)S(=O)(=O)c1ccc(NC(=O)Cn2c(=O)sc3ccccc32)cc1", "Potency": "inconclusive [decreasing]"},
      {"compound": "COC(=O)COc1nsnc1N1CCOCC1", "Potency": "inactive: > 76.9 µM"},
      {"compound": "COC(=O)c1cc2sc(Cl)cc2n1CC(=O)Nc1cccc(SC)c1", "Potency": "inconclusive [decreasing]"},
      {"compound": "COC(=O)c1ccccc1NC(=O)n1cc(C)cn1", "Potency": "inactive: > 76.9 µM"},
      {"compound": "COc1ccc(N(C)S(=O)(=O)c2cccc(C(=O)Nc3ccc(-n4cnnn4)cc3)c2)cc1", "Potency": "inconclusive [decreasing]"},
      {"compound": "Cc1ccc(-c2nn(C)c(=O)c3ccccc23)cc1CNC(=O)CN1CCOCC1", "Potency": "inconclusive [decreasing]"},
      {"compound": "Cc1nn(-c2nc3ccccc3s2)c(N)c1-c1ccc(Cl)cc1", "Potency": "active: 10.5 µM"},
      {"compound": "COc1ccccc1CNC(=O)c1ccc(NS(=O)(=O)c2c(C)noc2C)cc1", "Potency": "inconclusive [decreasing]"},
      {"compound": "CCOCCCn1cnc2c(c1=O)c1nc3ccccc3nc1n2-c1ccc(C)cc1", "Potency": "inconclusive [increasing]"},
      {"compound": "CC(NS(=O)(=O)c1ccc(Cl)cc1)C(c1cccs1)N1CCN(C)CC1", "note": "(configuration not stated)", "Potency": "inconclusive [decreasing]"},
      {"compound": "Fc1ccccc1C(c1nnnn1Cc1ccc2c(c1)OCO2)N1CCN(Cc2ccco2)CC1", "note": "(configuration not stated)", "Potency": "inconclusive [decreasing]"},
      {"compound": "O=C(NCCc1ccc(F)cc1)N1CCOCC1", "Potency": "inactive: > 76.9 µM"},
      {"compound": "COc1ccc(N=c2scc(-c3ccc(S(=O)(=O)N4CCOCC4)cc3)n2CCCO)cc1", "Potency": "inconclusive [decreasing]"},
      {"compound": "COc1ccc(OCC(O)Cn2c(=N)n(Cc3ccccc3)c3ccccc32)cc1", "note": "(configuration not stated)", "Potency": "active: 13.8 µM"},
      {"compound": "Cc1c(C(=O)Nc2ccc3c(c2)OCCO3)sc2nc(-c3ccccc3)cn12", "Potency": "inconclusive [decreasing]"},
      {"compound": "Cc1onc(-c2ccccc2Cl)c1C(=O)Nc1ccc(CN2CCCC2)cc1", "Potency": "inconclusive [decreasing]"},
      {"compound": "O=C1CC(N(Cc2ccc3c(c2)OCO3)C(=O)Nc2ccc(F)cc2)C(=O)N1c1ccccc1", "note": "(configuration not stated)", "Potency": "inconclusive [decreasing]"},
      {"compound": "CN(C)c1ccc(NC(=O)CCCc2ccccc2)cc1", "Potency": "inactive: > 76.9 µM"},
      {"compound": "Cc1ccc(C)c(S(=O)(=O)C(C#N)c2nc3ccccc3nc2N2CCOCC2)c1", "note": "(configuration not stated)", "Potency": "inactive: > 76.9 µM"},
      {"compound": "CC(=O)N1CCN(c2ccc(Nc3ncnc4c3oc3ccccc34)cc2)CC1", "Potency": "inconclusive [decreasing]"},
      {"compound": "CCN(CC)CCNC(=O)c1ccc(N2CCCCC2)c(NS(=O)(=O)c2ccc(C)cc2)c1", "Potency": "inconclusive [decreasing]"},
      {"compound": "CC1(C)CC(=O)C2=C(C1)NC(SCC(=O)Nc1ccccc1)=C(C#N)C21CCCCC1", "Potency": "inconclusive [decreasing]"},
      {"compound": "OC(COc1ccc(Br)cc1)CN1CCOCC1", "note": "(configuration not stated)", "Potency": "inconclusive [decreasing]"},
      {"compound": "Cc1cc(C)c2nc(SCC#N)cc(C)c2c1", "Potency": "inconclusive [increasing]"},
      {"compound": "c1cc(CNc2ccc3c(c2)OCO3)ccn1", "Potency": "inactive: > 76.9 µM"},
      {"compound": "Brc1cccc(-c2nnc3sc(CN4CCC5(CC4)OCCO5)cn23)c1", "Potency": "inconclusive [decreasing]"},
      {"compound": "Cc1nnc(NC(=O)CSc2nnc(Cc3ccccc3)n2Cc2ccccc2)s1", "Potency": "inconclusive [decreasing]"},
      {"compound": "CC(CCc1ccco1)NC(=O)CSc1cc(=O)n(C)c2ccccc12", "note": "(configuration not stated)", "Potency": "inactive: > 76.9 µM"},
      {"compound": "O=C(Nc1ccc2nc(-c3cccs3)c(-c3cccs3)nc2c1)N1CCOCC1", "Potency": "inactive"},
      {"compound": "COc1cc(OC)cc(-c2nnc(SCC(=O)N(C(C)C)C(C)C)o2)c1", "Potency": "inactive: > 76.9 µM"},
      {"compound": "CC(C)(C)c1cnnn1-c1ccc(NC(=O)c2ccc(Br)o2)cc1", "Potency": "inconclusive [decreasing]"},
      {"compound": "CS(=O)(=O)N1CCc2cc(-c3csc(NC(=O)Cc4cccs4)n3)ccc21", "Potency": "inactive: > 76.9 µM"},
      {"compound": "Cc1ccc2cc(C)c3nnc(SCC(=O)NCc4ccco4)n3c2c1", "Potency": "inactive: > 76.9 µM"},
      {"compound": "CCNc1ccc(C(=O)OCC)cc1NC(=O)c1cc(S(=O)(=O)N2CCOCC2)ccc1C", "Potency": "inconclusive [decreasing]"},
      {"compound": "CCOc1ccc(-c2nc(C#N)c(N3CCN(C)CC3)o2)cc1", "Potency": "inconclusive [decreasing]"},
      {"compound": "O=c1[nH]c2cc(Cl)cc(Cl)c2[nH]c1=O", "Potency": "inconclusive [decreasing]"},
      {"compound": "COc1ccccc1-n1c(=S)sc2c(=O)n(Cc3ccco3)c(SC)nc21", "Potency": "inconclusive [decreasing]"},
      {"compound": "CC1CCC/C(=C\\Nc2ccc(O)cc2)C1=O", "note": "(configuration not stated)", "Potency": "inconclusive [decreasing]"},
      {"compound": "NC1=NC(c2cn(-c3ccccc3)nc2-c2cccs2)n2c(nc3ccccc32)N1", "note": "(configuration not stated)", "Potency": "active: 11.7 µM"},
      {"compound": "COc1nc(-c2ccccc2)ccc1-c1noc(-c2ccccc2F)n1", "Potency": "active: 3.75 µM"},
      {"compound": "O=C(Cn1c(=O)sc2ccccc21)NCCOc1ccccc1F", "Potency": "inactive: > 76.9 µM"},
      {"compound": "c1ccc2c(c1)[nH]c1nc(SCCN3CCOCC3)nnc12", "Potency": "inconclusive [decreasing]"},
      {"compound": "Cc1nc2cc(NC(=O)N3c4ccccc4CC3C)ccc2n1C", "note": "(configuration not stated)", "Potency": "inconclusive [decreasing]"},
      {"compound": "Cc1cccc(-c2cc3nc4c(c(N5CCCC(O)C5)n3n2)CCC4)c1", "note": "(configuration not stated)", "Potency": "inactive: > 76.9 µM"},
      {"compound": "COc1ccc(-n2c(N)c(C(=O)NCc3ccco3)c3nc4ccccc4nc32)c(OC)c1", "Potency": "inconclusive [decreasing]"},
      {"compound": "CN(c1ccccc1C(=O)O)S(=O)(=O)c1ccc2c3c(cccc13)C(=O)N2", "Potency": "inactive: > 76.9 µM"},
      {"compound": "CCCCC(=O)Nc1cccc(-c2cn3ccsc3n2)c1", "Potency": "inconclusive [decreasing]"},
      {"compound": "CCOc1ccc2[nH]c(=O)c(CN(Cc3ccccc3)C(=O)N3CCCC3)cc2c1", "Potency": "inconclusive [decreasing]"},
      {"compound": "O=C(CC1CCCCC1)N1CCN(c2ccccn2)CC1", "Potency": "inconclusive [decreasing]"},
      {"compound": "CCn1c(SCc2nc3ccccc3c(=O)[nH]2)nc2ccccc2c1=O", "Potency": "inactive: > 76.9 µM"},
      {"compound": "COc1ccc(S(=O)(=O)NCC(c2cccnc2)N2CCN(c3ccc(F)cc3)CC2)cc1C", "note": "(configuration not stated)", "Potency": "inconclusive [decreasing]"},
      {"compound": "CC1(C)Cc2c(sc3c2c(=N)n(Cc2ccco2)c(=O)n3CC(=O)Nc2cccc(Cl)c2)CO1", "Potency": "inconclusive [decreasing]"},
      {"compound": "COc1ccc(OC)c(Nc2ncnc3c2cnn3-c2cccc(C)c2)c1", "Potency": "inactive: > 76.9 µM"},
      {"compound": "Cc1ccc(CNC(=O)C2CCN(S(=O)(=O)c3c(C)noc3C)CC2)cc1", "Potency": "inactive: > 76.9 µM"},
      {"compound": "CCCCCC(=O)N1CCN(CCN=CC2=C(O)CC(c3ccco3)CC2=O)CC1", "note": "(configuration not stated)", "Potency": "inactive: > 76.9 µM"},
      {"compound": "COc1cc(C2c3c(oc4cc(C)c(C)cc4c3=O)C(=O)N2c2cc(C)ccn2)ccc1O", "note": "(configuration not stated)", "Potency": "inactive: > 76.9 µM"},
      {"compound": "CCOC(=O)c1c(C)nc2ccccn12", "Potency": "inactive: > 76.9 µM"},
      {"compound": "O=c1c2c(nc3cc(-c4ccc(F)cc4)[nH]n13)CCCC2", "Potency": "inconclusive [decreasing]"},
      {"compound": "CC1=C(C#N)C(c2ccoc2)C(C(=O)OCc2ccccc2)=C(N)S1", "note": "(configuration not stated)", "Potency": "active: 12 µM"},
      {"compound": "CCC(C)NC(=O)C1CCN(c2nc(C)cc(C)n2)CC1", "note": "(configuration not stated)", "Potency": "inactive: > 76.9 µM"},
      {"compound": "O=C(Nc1cccnc1)c1cnn2c(C(F)F)cc(C3CC3)nc12", "Potency": "inconclusive [increasing]"},
      {"compound": "O=C(CCCOc1ccccc1)Nc1nncs1", "Potency": "inconclusive [decreasing]"},
      {"compound": "Cc1ccc(-n2c(SCC(=O)Nc3ccc4c(c3)OCO4)nnc2-c2cccs2)cc1", "Potency": "active: 9.3 µM"},
      {"compound": "O=c1[nH]c2cc3c(cc2cc1C(c1nnnn1Cc1ccccc1)N1CCN2CCCC2C1)OCCO3", "note": "(configuration not stated)", "Potency": "inconclusive [decreasing]"},
      {"compound": "CC(=O)c1cccc(NC(=O)c2ccc(S(=O)(=O)N3CCCCC3)cc2)c1", "Potency": "inconclusive [decreasing]"},
      {"compound": "CCN1CC=C2C(C1)C(c1ccc(Cl)s1)C(C#N)=C(N)C2(C#N)C#N", "note": "(configuration not stated)", "Potency": "inconclusive [decreasing]"},
      {"compound": "Cc1cc(C)n(-c2ccc(C(=O)Nc3ccc4c(c3)OCCO4)cc2)n1", "Potency": "inconclusive [decreasing]"},
      {"compound": "c1ccc(COn2c(-c3ccccc3)nc3c2CCc2nonc2-3)cc1", "Potency": "inconclusive [decreasing]"},
      {"compound": "Cc1ccc(Cn2nnc3c(=O)[nH]c(C4CCN(S(=O)(=O)c5ccccc5)CC4)nc32)cc1", "Potency": "inconclusive [decreasing]"},
      {"compound": "Cc1ccc2c(CN3CCN(CCO)CC3)cc(=O)oc2c1", "Potency": "inconclusive [decreasing]"},
      {"compound": "Cc1[nH]nc2c1C1(CCN(Cc3ccccc3)CC1)C(C#N)=C(N)O2", "Potency": "inconclusive [decreasing]"},
      {"compound": "COc1ccc(OC)c(NC2=NC3(CCCC3)N=C(N)N2)c1", "Potency": "inconclusive [decreasing]"}
    ]}
  ]
}
